Measurements published in PMC10668032.
The list shows a part of the results. At the low end of the ranking the order means little.

molecular target: SIX1 homeodomain (reference allele) (UniProt Q15475); assay: universal protein binding microarray; conditions: Universal all-10-mer PBM (8x60K, AMADID 030236), 300 nM GST-tagged protein, Alexa Fluor 488 anti-GST; buffer, salt, pH and temperature not stated; high values mean tight binding; most listed sequences are background and not binding sites; double strand, one strand shown

Row | Sequence | binding signal
1 | CCTTCCAC | -0.189 E-score
2 | CAACGGGG | -0.056 E-score
3 | TATACAGA | 0.216 E-score
4 | AGCAGTCC | -0.322 E-score
5 | ATGCTCCG | 0.0409 E-score
6 | AAGGGGGT | 0.13 E-score
7 | GAGTACAA | -0.0437 E-score
8 | CACTAAAG | -0.318 E-score
9 | ATCCGTGC | 0.253 E-score
10 | TACCAGCA | -0.0257 E-score
11 | TATGAAGA | 0.0819 E-score
12 | GCCGAAGC | -0.0838 E-score
13 | AGTTGACG | -0.178 E-score
14 | GAAAAGTA | -0.0938 E-score
15 | CCCCGGAC | -0.0529 E-score
16 | AAATGGAA | -0.284 E-score
17 | AAGATATG | 0.303 E-score
18 | AAAACCAG | 0.0442 E-score
19 | ACCTAAAT | -0.0188 E-score
20 | GTGACGAA | -0.174 E-score
21 | ACGCAACA | -0.153 E-score
22 | AGCCTCTC | -0.195 E-score
23 | GTATTGAC | 0.192 E-score
24 | CCTTGCAG | -0.0753 E-score
25 | AGGGCAGA | 0.019 E-score

Row | Sequence | binding signal
26 | CAAGCCAG | -0.133 E-score
27 | TAGATCTA | 0.175 E-score
28 | CATACCCG | 0.259 E-score
29 | ACGTCAAA | -0.273 E-score
30 | GGCACGCA | -0.208 E-score
31 | CCGTACAC | 0.081 E-score
32 | CAAGTGAC | 0.0332 E-score
33 | ACTCTGCT | -0.186 E-score
34 | GCGCGGCA | -0.186 E-score
35 | CCAGCGAC | -0.21 E-score
36 | AAGGACCT | -0.292 E-score
37 | ATCACGGG | 0.104 E-score
38 | TGTTTGAA | -0.147 E-score
39 | ATCGCTGG | 0.23 E-score
40 | CTCCATAA | -0.283 E-score
41 | AGCTAACC | -0.166 E-score
42 | ACGGGGCA | -0.0345 E-score
43 | CAGCGACC | -0.0129 E-score
44 | CTACCTTA | -0.00171 E-score
45 | CAGTTAAA | -0.281 E-score
46 | CAGAGTGA | 0.148 E-score
47 | CACTTGAG | -0.0599 E-score
48 | GAAGAATC | 0.124 E-score
49 | GGACCTCA | -0.17 E-score
50 | CCAGCGGC | -0.158 E-score

Row | Sequence | binding signal
51 | GCAAGCGC | -0.172 E-score
52 | ATGGTGGG | -0.0179 E-score
53 | CTGGCTCA | 0.049 E-score
54 | ATTATTGA | 0.0348 E-score
55 | GGCGTCGA | -0.119 E-score
56 | ATACGGCC | 0.344 E-score
57 | AAATCTCT | -0.279 E-score
58 | CTGTAGAA | -0.137 E-score
59 | GCTCTCTA | -0.0409 E-score
60 | AGCAAAAC | -0.251 E-score
61 | CTATCAAA | 0.258 E-score
62 | CGGCTATC | 0.353 E-score
63 | ATCTCTCA | 0.252 E-score
64 | GACATACA | -0.0412 E-score
65 | GAGTGCGC | -0.25 E-score
66 | AATGTCCC | -0.102 E-score
67 | GAGATCCA | 0.332 E-score
68 | ATAATATG | 0.27 E-score
69 | ACTATCAA | 0.253 E-score
70 | AAGTGACC | 0.0405 E-score
71 | GAGGTACA | -0.0245 E-score
72 | CCCGAATC | 0.0551 E-score
73 | GTATAACA | 0.238 E-score
74 | GTGGCCGA | -0.0528 E-score
75 | ACATCAAT | -0.163 E-score

Row | Sequence | binding signal
76 | AGGTGGAT | 0.305 E-score
77 | ATTATTCA | 0.138 E-score
78 | ATGGAAGA | -0.0359 E-score
79 | ACGGGGGA | 0.217 E-score
80 | ATACCTTC | 0.323 E-score
81 | CATGTTTC | -0.112 E-score
82 | ACCCACGC | -0.0578 E-score
83 | ACAATGGA | 0.118 E-score
84 | AGCTAGGG | 0.0411 E-score
85 | AAAATACA | -0.0125 E-score
86 | GGTTTAGA | 0.124 E-score
87 | AGGAGGCA | -0.119 E-score
88 | GCTTCGTA | -0.0231 E-score
89 | CACTGCCA | -0.0495 E-score
90 | ACGAATAT | 0.179 E-score
91 | GATATCCA | 0.452 E-score
92 | GCGCCGCA | -0.194 E-score
93 | CTAGCAGA | 0.0232 E-score
94 | ATTCGAAT | -0.235 E-score
95 | ACGAGGAT | 0.134 E-score
96 | ATCTGAAT | 0.0787 E-score
97 | ACGTGTGC | -0.0816 E-score
98 | ACTGGGAA | -0.191 E-score
99 | AACGCCAC | -0.157 E-score
100 | ACCCAAAG | -0.191 E-score

Row | Sequence | binding signal
101 | GTGCTCAA | -0.00172 E-score
102 | GCCCGGCA | -0.228 E-score
103 | AGCTTTAG | -0.114 E-score
104 | CTACCGCA | -0.00924 E-score
105 | CATAGCAA | -0.147 E-score
106 | GTTAACCA | -0.218 E-score
107 | AGTCCAGC | -0.247 E-score
108 | ATTTGGGG | 0.0858 E-score
109 | CTCCTTCA | -0.119 E-score
110 | ATTCCGTC | -0.137 E-score
111 | AGTCCCCC | -0.132 E-score
112 | GGACCGAC | -0.0671 E-score
113 | ACATCCAA | -0.174 E-score
114 | CACAGGCA | -0.0965 E-score
115 | AGCAAGGC | -0.197 E-score
116 | GCATCCTA | 0.108 E-score
117 | GTCTTAGA | -0.118 E-score
118 | GAAATAGA | 0.0945 E-score
119 | GGGCCAAA | -0.191 E-score
120 | GAAAGTCA | -0.364 E-score
121 | CGAGACCA | -0.0423 E-score
122 | ATCACCGA | 0.251 E-score
123 | GCACTCTA | -0.0542 E-score
124 | ACAGTGTA | 0.0563 E-score
125 | TCCTCCCA | -0.0118 E-score

Row | Sequence | binding signal
126 | CGACACGC | 0.0501 E-score
127 | ACGATATA | 0.296 E-score
128 | GCCACACC | 0.0417 E-score
129 | GCCTAGGC | -0.284 E-score
130 | CAGCATAC | -0.0472 E-score
131 | GCGGCTCC | -0.171 E-score
132 | CGCTTTCA | -0.2 E-score
133 | CTCGAACC | -0.245 E-score
134 | ATCCACGG | 0.187 E-score
135 | CTATAATC | 0.157 E-score
136 | GTTGGCGA | -0.129 E-score
137 | ACACGTAA | 0.00241 E-score
138 | AGAGGAGA | -0.0368 E-score
139 | GCGTCACC | -0.264 E-score
140 | ACGACTCG | 0.0337 E-score
141 | GCTGGTGA | 0.0944 E-score
142 | CCGTACCG | 0.0495 E-score
143 | ATGTGATG | 0.031 E-score
144 | CTCGCGCA | -0.0434 E-score
145 | GCCGGTAA | 0.0528 E-score
146 | AAGGAGAC | 0.00413 E-score
147 | AGCAGTAT | 0.313 E-score
148 | AAACGGCT | -0.202 E-score
149 | AAGCCTCT | -0.214 E-score
150 | CATTCCGG | -0.0999 E-score

Row | Sequence | binding signal
151 | ATGATCAT | 0.246 E-score
152 | CATCGTAA | -0.0635 E-score
153 | GGTGGTAA | -0.084 E-score
154 | ACTCAAAC | -0.0901 E-score
155 | CCCTCGCC | -0.0217 E-score
156 | GTTTTCGA | -0.229 E-score
157 | GTACGAAC | -0.00865 E-score
158 | AGTATCTG | 0.317 E-score
159 | CAGATAGG | 0.245 E-score
160 | CGATACAA | 0.288 E-score
161 | CTGAGTTA | -0.107 E-score
162 | ATCCAGTA | 0.242 E-score
163 | CTAATCAA | -0.0359 E-score
164 | CCCTTTCA | -0.169 E-score
165 | AGAGGTAA | -0.0671 E-score
166 | GTTGGCAA | -0.158 E-score
167 | CATTTACC | 0.0067 E-score
168 | AGGGAATG | -0.138 E-score
169 | TGAGGAAA | -0.267 E-score
170 | CATCGTCC | -0.0271 E-score
171 | CCACCGTC | -0.231 E-score
172 | GATTTAGC | -0.105 E-score
173 | CCGGTCAG | 0.0616 E-score
174 | ATATAGTC | 0.209 E-score
175 | AATTAAGC | -0.0562 E-score

Row | Sequence | binding signal
176 | CATTTATA | 0.0779 E-score
177 | AATGTGTC | -0.189 E-score
178 | ACAAAGTA | -0.00139 E-score
179 | CCCAGGCC | -0.271 E-score
180 | CCCTCCCC | 0.0341 E-score
181 | CACGAGCA | 0.00855 E-score
182 | GATCTTAC | 0.275 E-score
183 | GCAATGCA | -0.0755 E-score
184 | AGACCTAG | -0.0843 E-score
185 | TCTATAAA | -0.0583 E-score
186 | GACTCTCA | 0.00039 E-score
187 | ACGTTAAA | -0.164 E-score
188 | ATGGAGCG | -0.0675 E-score
189 | ACATATAA | 0.114 E-score
190 | ATAAATGC | -0.187 E-score
191 | GAATAAGA | -0.161 E-score
192 | GTTCCTGA | -0.123 E-score
193 | CTATTCCC | -0.188 E-score
194 | AACCTTGT | -0.239 E-score
195 | ATCGCGTA | 0.189 E-score
196 | TCCCCGAA | 0.0531 E-score
197 | GTGGATTA | 0.133 E-score
198 | CCGGATCA | 0.454 E-score
199 | GCATGGTA | 0.125 E-score
200 | CCGGTAAC | -0.167 E-score

Row | Sequence | binding signal
201 | TCCACTCA | -0.164 E-score
202 | AAATAGCG | -0.207 E-score
203 | AGTGTGAG | 0.0731 E-score
204 | ATGCACAG | -0.131 E-score
205 | ACGAGCTG | 0.103 E-score
206 | ACACTCCG | 0.027 E-score
207 | CCAATCGA | 0.046 E-score
208 | GATCCCAA | 0.275 E-score
209 | CATGGCCG | -0.222 E-score
210 | ACACATGC | 0.0304 E-score
211 | ACATCGGC | -0.0708 E-score
212 | AGGCACCC | -0.253 E-score
213 | CATTGTCG | -0.11 E-score
214 | CACTCCGA | -0.0253 E-score
215 | ACCGAGGG | -0.0296 E-score
216 | AGCGACCC | 0.0129 E-score
217 | GGGCAGAC | -0.0718 E-score
218 | TCTACGAA | 0.025 E-score
219 | CCCCGCTC | 0.0702 E-score
